According to PubChem BioAssay AID1346428 (National Center for Advancing Translational Sciences (NCATS), 2018):
Out of some 48,000 compounds screened, about 1,200 (2.5%) were called active. About 2% were inconclusive and are not listed.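 The calls were made as follows: active = activation of at least 60% and not above a set upper limit (about 1 call in 100 departs from these limits); inconclusive = activation of 40% to 60%, or above that upper limit; inactive = activation under 40%.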 The list shows a part of the results.

These compounds were tested against Probable G-protein coupled receptor 32 (Homo sapiens) (UniProt O75388) (assay: qHTS for Agonists of Human Resolvin D1 Receptor DRV1). Conditions: CHO-K1 GPR32 beta-arrestin PathHunter luminescence, 90 min; at 76.9 µM; stronger effect = higher value; zero percent set by DMSO-only wells.
Summary of the method: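 PathHunter beta-arrestin recruitment in CHO-K1 cells stably expressing ProLink-tagged GPR32. Cells were exposed to compound for 90 min at 37 C, then chemiluminescence was read after 1 h detection at ambient temperature; DMSO served as basal control.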
Also: 0% is about no effect.

Sequence of UniProt O75388 (O75388 whole entry, looked up): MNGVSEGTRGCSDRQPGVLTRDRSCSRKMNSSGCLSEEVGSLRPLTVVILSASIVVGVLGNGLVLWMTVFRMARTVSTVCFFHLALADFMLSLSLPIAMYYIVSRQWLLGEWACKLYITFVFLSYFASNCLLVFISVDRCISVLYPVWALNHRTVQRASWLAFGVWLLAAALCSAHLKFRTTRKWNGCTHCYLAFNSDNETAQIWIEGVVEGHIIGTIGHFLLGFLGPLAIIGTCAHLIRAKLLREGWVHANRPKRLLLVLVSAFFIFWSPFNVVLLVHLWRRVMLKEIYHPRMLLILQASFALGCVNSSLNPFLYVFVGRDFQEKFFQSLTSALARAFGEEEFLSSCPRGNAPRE

activation, inactive:
S=C(Nc1ccccc1)Nc1nccs1 -57.5%
CCOc1ccc(C(=O)Nc2ccc(C(=O)OCc3cc(=O)n4ccsc4n3)cc2)cc1 5.33%
CCOC(=O)c1ccc(NC(=O)c2csc3c2CCCC3)cc1 -1.17%
O=C(Nc1cccc2cccnc12)c1cccc2ccccc12 -2.88%
COC(=O)c1ccc(Cl)cc1NC(=O)NCc1c(-n2cccc2)sc2c1CCCC2 -10.8%
Cc1ccc(CNC(=O)Cn2ncc3c([nH]c4ccc(C)cc43)c2=O)cc1 -7.42%
COc1cccc(N2CCN(C(=O)c3cc4c(=O)n(Cc5cccs5)ccc4nc3C)CC2)c1 -17.4%
COc1ccccc1NC(=O)CN1C(=O)CC(c2ccc(C)c(C)c2)=Nc2ccccc21 -7.19%
Cc1cccc(NC(=O)Cn2cnc(S(=O)(=O)N3CCCC3)c2)c1C -10.5%
COc1ccc(CCNC(=O)c2ccc(-n3c(C)cc4c3CCCC4)cc2)cc1OC -2.88%
CCCc1cc(=O)[nH]c(SCc2nc(-c3ccc(C)cc3)no2)n1 -5.52%
COc1ccccc1CCNC(=O)Cc1c(C)c2cc3c(C(C)(C)C)coc3c(C)c2oc1=O -9.34%
COc1ccc(N2CCN(S(=O)(=O)CCNC(=O)COc3cccc(OC)c3)CC2)cc1 -15.3%
CCCSc1ncc(Cl)c(C(=O)Nc2c(C(=O)Nc3ccccc3)oc3ccccc23)n1 -0.0621%
CC(C)Oc1ccc(CNC(=O)Nc2ccc3c(c2)N(C)C(=O)c2ccccc2S3)cc1 -15.1%
Cc1cccc(Cn2c(SCc3ccc(C(=O)N4CCC(C)CC4)cc3)nc3ccncc32)c1 -11.3%
Cc1ccc2c(c1)CC(C)N2S(=O)(=O)c1nnc(NC(=O)c2ccccc2F)s1 (centres undefined) -6.65%
CC(C)c1ccccc1NC(=O)CN(c1ccccc1)S(=O)(=O)N(C)C -6.18%
Cc1ccc(NC(=O)CCS(=O)(=O)c2ccc(Br)cc2)c(C)c1 -10.3%
CCOc1ccc(CNC(=O)c2[nH]c3ccccc3c2Sc2ccc(C)cc2)cc1 -12.4%
O=C(NCCCN1CCN(c2ccc(F)cc2)CC1)c1sc2ncccc2c1-n1cccc1 14.3%
O=C(Cn1ccn(-c2cccc(Cl)c2)c(=O)c1=O)c1ccc(F)cc1 -23.1%
Cc1ccc2c(c1)C(=O)C(=O)N2Cc1ccc(OC(C)C)cc1 28.6%
COc1ccc(OC)c(S(=O)(=O)N2Cc3ccccc3CC2C(=O)Nc2ccc(Cl)cc2)c1 (centres undefined) -20.2%
